Measured values as given in paper PMC5827659, “A dual mechanism promotes switching of the Stormorken STIM1 R304W mutant into the activated state” (Nature Communications, 2018).

Assays:
[1] = biological target: the molecule itself; experiment: AUC; analytical ultracentrifugation of purified OASFext proteins at ~0.5 mg ml^−1 in solution; dimer to monomers
[2] = biological target: the molecule itself; experiment: AUC; analytical ultracentrifugation of purified OASFext proteins; estimated self-association of the dimer units (dimer-to-tetramer association; tetramer to dimers)

B1: OASFext L251S (STIM1 […] L251S) (domain or fragment)
chain: not shown
notes: human STIM1 […] (extended OASF fragment), L251S; Primarily dimeric at ~0.5 mg/ml by AUC; also called L251S OASFext; L251S protein; source: Supplementary Methods
Kd [1]: < 1 µM
stoichiometry N [1]: 2
Kd [2]: < 1000 µM

B2: OASFext R304W (STIM1 […] R304W) (domain or fragment)
chain: not shown
notes: human STIM1 […] (extended OASF fragment) with the patient mutation R304W; Primarily dimeric at ~0.5 mg/ml by AUC; also called R304W OASFext; R304W protein; source: Supplementary Methods
Kd [1]: < 1 µM
stoichiometry N [1]: 2

B3: OASFext (extended OASF fragment, STIM1 […]) wild type (domain or fragment)
chain: not shown
notes: human STIM1 […] (extended OASF fragment); Primarily dimeric at ~0.5 mg/ml by AUC; also called wt OASFext; OASFext wt; source: Supplementary Methods
Kd [1]: < 1 µM
stoichiometry N [1]: 2
